{"source": "PubChem BioAssay AID686971", "about": "(National Center for Advancing Translational Sciences (NCATS), 2013)", "note": "Screen size: about 360,000 compounds; about 7,500 (2.1%) were called active. This list was built around the results that the source calls inconclusive (neither active nor inactive); the mix of calls is not that of the screen. Calls follow the shape of the dose curve; as a rule, active = well fitted cell-killing curve with a large enough effect; inconclusive = small, poorly fitted or top-dose-only effect, or effect the other way, or another doubt; inactive = no such curve, though single readings can be large or run the other way. Potencies of inconclusive entries are left out as doubtful fits. Potency is read from the fitted curve at half-maximal effect; tags tell the direction and shape of the fitted curve.", "data": [{"experiment": "qHTS for induction of synthetic lethality in tumor cells producing 2HG: qHTS for the HT-1080-IDH1KD cell line", "conditions": "HT-1080 IDH1 knockdown viability, ATP luminescence, 48 h; activity, negative = toxicity: at 46.1 µM (top of the series) unless noted", "from_the_text": "Unbiased genomic sequencing for 22 glioma genomes found recurrent mutation of IDH1 on chromosome 2q33, a gene encoding the cytosolic isoform of IIDH1 associated with the tri-carboxylic acid cycle (TCA) that catalyzes the oxidative decarboxylation of isocitrate, yielding alpha-ketoglutarate and CO2 via NADP+ to NADPH conversion. Subsequent studies confirmed the recurrent IDH mutations in up to 70% of secondary gliomas and in 10% of AML cases. In addition, the somatic mutation of cancer-associated IDH1 is a point mutation resulting in various amino-acid substituents at Arginine132 (IDH1 R132), a key residue found in the enzyme's active site that when mutated, results in the loss-of-function in metabolizing isocitrate but confers a gain-of-function to produce the oncometabolite 2-hydroxyglutarate (2HG). This in effect defines IDH1 as an oncogene and provides an extraordinary opportunity to discover chemical probes against mutant IDH1 that may translate into much needed new therapies for glioma and AML patients.\nThis assay aims to perform a synthetic-lethal screen for chemical probes specific for 2HG-producing tumor cells using matched paired cell lines (1) HT-1080-NT fibrosarcoma cell line that overproduces 2HG and (2) HT-1080-IDH1KD cell line which has IDH1 expression knocked-down. Desirable compounds are toxic to the NT fibrosarcoma cell line but not to the IDH1KD cell line. The data in this AID corresponds to the results of the qHTS against the HT-1080 IDH1KD cell line.\n[1] Dang L, Jin S, Su SM. IDH mutations in glioma and acute myeloid leukemia. Trends of Mol Med. 2010; 16(9): 387-97.\n[2] Dang L et al. Cancer-associated IDH1 mutations produce 2-hydroxyglutarate. Nature. 2010; 465(7300):966.\nMolecular Libraries Probe Production Centers Network [MLPCN]\nNIH Chemical Genomics Center [NCGC]\nAssay Submitter (PI): Lenny Dang Ph.D., Agios Pharmaceuticals\nSuspensions of trypsinized HT-1080-IDH1KD cells were dispensed into white, tissue culture-treated, solid 1536-well plates at 5uL/well (750 cells/well final concentration) in RPMI medium supplemented with 5% FBS. Plates were incubated at 37 degrees C for 2 hours, after which 23 nL of compounds or DMSO were delivered to each well using a pin tool. Plates were then incubated at 37 degrees C for an additional 48 hours. CellTiter-Glo viability reagent (Promega) was dispensed into wells (2.5uL/well) and incubated at room temperature for 10 minutes. The plates were measured on a PerkinElmer ViewLux plate reader for luminescent signal (clear filter, 1 sec exp.). DMSO-treated control wells and media-only (no cells) control wells were used to normalize %Activity of identified toxic compounds; DMSO-treated wells corresponded to 0%Activity (100% viability), while media-only controls were used to normalize 100%Activity (0% viability). To minimize variability between cell lines, both HT-1080-NT and HT-1080-IDH1KD lines were dispensed and treated with identical compound series in single batches.\nConcentration-response curves were fitted to the signals arising from the resulting luminescence. The concentration-effect curves were then classified based on curve quality (r2), response magnitude and degree of measured activity, and compounds were subsequently categorized based on their curve class.", "values": [{"smiles": "COc1ccc(-c2ccc(C(=O)NCC(C)C)c3occc23)c(C)c1", "Potency": "inconclusive [cytotoxic, single point]"}, {"smiles": "COc1ccc(-c2ccc(C(=O)NC(C)C)c3occc23)c(C)c1", "Potency": "inconclusive [cytotoxic, single point]"}, {"smiles": "CCN(CC)c1ccc(/C=c2\\sc3nc4ccccc4n3c2=O)c(O)c1", "Potency": "inconclusive [cytotoxic, single point]"}, {"smiles": "Cc1cccc(NC(=O)C2CCCN(S(=O)(=O)c3ccc(-n4cnnn4)cc3)C2)c1", "note": "(stereo not drawn)", "activity, negative = toxicity": "inconclusive: -8.13% [cytotoxic]"}, {"smiles": "CCOC(=O)C1=C(CN2c3ccccc3CC2C)NC(=O)NC1c1ccccc1", "note": "(stereo not drawn)", "Potency": "inconclusive [cytotoxic, single point]"}, {"smiles": "C=CCc1cccc(/C=C/c2cc(=O)c3ccccc3[nH]2)c1O", "Potency": "inactive"}, {"smiles": "O=C(N/N=C/c1cc([N+](=O)[O-])ccc1O)C1CCCCC1", "Potency": "inconclusive [cytotoxic, partial curve]"}, {"smiles": "CCCCc1ccc(/C(C)=N/Nc2cc(N3CCOCC3)nc(C)n2)cc1", "Potency": "inconclusive [cytotoxic, single point]"}, {"smiles": "CCCC(O)(c1ccc(CC)cc1)C(CN1CCOCC1)c1ccccc1", "note": "(stereo not drawn)", "Potency": "active: 20.6 µM"}, {"smiles": "N#C/C(=C\\c1cccc(NC(=O)c2ccccc2Cl)c1)C(=O)NCCc1ccccc1", "Potency": "inconclusive [cytotoxic, partial curve, poor fit]"}, {"smiles": "Cc1cnc(NC(=O)CN(C)S(=O)(=O)c2ccc(Cl)cc2)s1", "Potency": "inconclusive [cytotoxic, single point]"}, {"smiles": "COc1ccc(C(=O)c2cc(OC)c(OC)c(OC)c2)cc1OC", "Potency": "active: 11.6 µM"}, {"smiles": "COC(=O)c1ccc(COc2ccccc2/C=C(\\C#N)C(=O)Nc2ccc(C)cc2C)cc1", "Potency": "inconclusive [rising, single point]"}, {"smiles": "COc1ccc(NC(=O)c2cc(C3CCCCN3S(C)(=O)=O)on2)c(C)c1", "note": "(stereo not drawn)", "Potency": "inconclusive [cytotoxic, single point]"}, {"smiles": "Cc1ccc(S(=O)(=O)N/N=C\\c2cc([N+](=O)[O-])ccc2Cl)cc1", "Potency": "inconclusive [cytotoxic, single point]"}, {"smiles": "NC(=S)N=Nc1c(O)n(CCCl)c2ccc(Cl)cc12", "Potency": "inconclusive [cytotoxic, full curve, poor fit]"}, {"smiles": "O=c1[nH]c(CN2CCN(C/C=C/c3ccccc3)CC2)nc2ccccc12", "Potency": "inconclusive [cytotoxic, single point]"}, {"smiles": "CCN(CC)C(=O)c1cccc(-c2csc(C(O)c3cccc(Cl)c3)n2)c1", "note": "(stereo not drawn)", "Potency": "inconclusive [cytotoxic, single point]"}]}]}
